Results taken from the supplement of paper PMC10670038.
Structures can show the parent of a compound that is named as a salt. ± gives the standard deviation of the averaged measurements. The full ranking holds about 2,000 compounds; the median of “relative cell viability vs DMSO, compound + 0.2 uM CuET” is about 1, and the lowest 2% start at about 0.25. The list shows a part of the results.

Each compound was assayed on TE10 (assay: relative cell viability vs DMSO, compound + 0.2 uM CuET (fraction); TE10 is an esophageal squamous carcinoma line; higher = less cytotoxic). Details: 2 µM; co-treatment: CuET (bis(diethyldithiocarbamate)copper) 0.2 uM; 48 h.
Experimental: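 TE10 ESCC cells (1,000/well, 384-well plates) were treated with Selleck bioactive library compounds at 2 uM combined with 0.2 uM CuET (copper diethyldithiocarbamate) for 48 h. Viability was read by CellTiter-Glo and expressed relative to DMSO wells. Two technical replicates (A, B).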
`COc1cc2ncnc(Nc3ccc(O)c(Br)c3)c2cc1OC` was tested, and the relative cell viability was 1.15 ± 0.18.
Compound `O=C(O)c1ccc(O)c2ncccc12` has a relative cell viability of 1.06 ± 0.14.
Work on `COc1cc(-c2cc(-c3cccc(O)c3)cnc2N)cc(OC)c1OC` yielded a relative cell viability of 1.32 ± 0.091.
In the case of `Nc1nc(=O)[nH]cc1F` [Flucytosine], the relative cell viability is reported as 1.15 ± 0.052.
`O=C(NC1CC1)c1cc(-c2cccs2)on1` [Isoxazole 9 (ISX-9)] showed a relative cell viability of 1.1 ± 0.19.
For `Oc1cc(O)cc(/C=C/c2ccc(O)c(O)c2)c1` [Piceatannol], the relative cell viability was 1.02 ± 0.094.
Compound `Cc1cc(Nc2cc(CN3CCOCC3)c3nc(C)c(Cc4ccc(Cl)cc4F)n3n2)n[nH]1` has a relative cell viability of 0.92 ± 0.046.
`Brc1ccc(C2CN3CCSC3=N2)cc1` (single isomer, unassigned; (-)) [(-)-p-Bromotetramisole Oxalate] showed a relative cell viability of 1.33 ± 0.11.
In the case of `Nc1nnc(-c2cccc(Cl)c2Cl)c(N)n1` [Lamotrigine], the relative cell viability is reported as 1.01 ± 0.039.
`CC[C@@]1(O)C(=O)OCc2c1cc1n(c2=O)Cc2cc3c(CN(C)C)c(O)ccc3nc2-1` [Topotecan HCl] was tested, and the relative cell viability was 0.322 ± 0.15.
`CN(C)C(=O)c1cc2cnc(Nc3ccc(N4CCNCC4)cn3)nc2n1C1CCCC1` was tested, and the relative cell viability was 1.23 ± 0.11.
`C=C1[C@H](CO)[C@@H](O)C[C@@H]1n1cnc2c(=O)[nH]c(N)nc21` [Entecavir Hydrate] gave a relative cell viability of 1.6 ± 0.13.
In the case of `CC(=O)O[C@]1(C(C)=O)CC[C@H]2[C@@H]3C=C(C)C4=CC(=O)CC[C@]4(C)[C@H]3CC[C@@]21C` [Megestrol Acetate], the relative cell viability is reported as 1.21 ± 0.17.
For `CN1CCN(c2ccc(Nc3cc(-c4cccc(-n5ccc6cc(C7CC7)cc(F)c6c5=O)c4CO)cn(C)c3=O)nc2)CC1`, the relative cell viability was 0.978 ± 0.068.
`COc1ccc2c(c1)c(CC(=O)OCC(=O)O)c(C)n2C(=O)c1ccc(Cl)cc1` [Acemetacin] gave a relative cell viability of 1.26 ± 0.2.
Work on `Cc1nccn1CC1CCc2c(c3ccccc3n2C)C1=O` (stereo unspecified) [Ondansetron HCl] yielded a relative cell viability of 1.29 ± 0.12.
In the case of `CC(=O)NC[C@H]1CN(c2ccc(N3CCOCC3)c(F)c2)C(=O)O1` [Linezolid], the relative cell viability is reported as 1.52 ± 0.027.
Work on `Cn1sc(=O)n(Cc2ccccc2)c1=O` yielded a relative cell viability of 0.444 ± 0.021.
`COc1ccc2cc3[n+](cc2c1OC)CCc1cc2c(cc1-3)OCO2` [Berberine HCl] showed a relative cell viability of 1.12 ± 0.015.
In the case of `COc1cc2c(cc1Cc1cccc(Cl)c1F)c(=O)c(C(=O)O)cn2[C@H](CO)C(C)C` [Elvitegravir (GS-9137, JTK-303)], the relative cell viability is reported as 0.941 ± 0.05.
`CC(C)(C)OC(=O)Nc1ccc(-c2cc(C(=O)NCCCCCCC(=O)NO)no2)cc1` gave a relative cell viability of 0.244 ± 0.003.
In the case of `COc1cc(-c2cc(-c3ccc(N4CCNCC4)cc3)cnc2C)cc(OC)c1OC`, the relative cell viability is reported as 0.87 ± 0.053.
Compound `Nc1ccccc1NC(=O)c1ccc(CNc2nccc(-c3cccnc3)n2)cc1` [Mocetinostat (MGCD0103)] has a relative cell viability of 0.249 ± 0.039.
With `CC[C@H](C)C(=O)O[C@H]1C[C@H](O)C=C2C=C[C@H](C)[C@H](CC[C@@H](O)C[C@@H](O)CC(=O)O)[C@H]21` [Pravastatin sodium] the relative cell viability was 0.813 ± 0.099.
`CC1=C(C(=O)O)N2C(=O)[C@@H](NC(=O)[C@H](N)c3ccccc3)[C@H]2SC1` [Cephalexin] was tested, and the relative cell viability was 1.31 ± 0.071.
`CCC(CC)(NC(=O)C(C)C)C(=O)N[C@@H](CCCN=C(N)N)C(=O)NC1(C(=O)NC(c2ccc(F)cc2)c2ccc(F)cc2)CCCC1` was tested, and the relative cell viability was 1.01 ± 0.04.
`O=C(O)Cc1cc(I)c(Oc2ccc(O)c(I)c2)c(I)c1` [Tiratricol] gave a relative cell viability of 1.14 ± 0.1.
Work on `Cc1cc(Nc2ncc(Cl)c(Nc3ccccc3S(=O)(=O)C(C)C)n2)c(OC(C)C)cc1C1CCNCC1` yielded a relative cell viability of 0.566 ± 0.12.
`C[C@@H](Oc1cc(-c2cnn(C3CCNCC3)c2)cnc1N)c1c(Cl)ccc(F)c1Cl` showed a relative cell viability of 1.05 ± 0.011.
For `NS(=O)(=O)C#Cc1ccccc1` [Pifithrin-μ], the relative cell viability was 0.291 ± 0.042.
Compound `CNCC[C@@H](Oc1ccccc1C)c1ccccc1` [Atomoxetine HCl] has a relative cell viability of 0.978 ± 0.08.
`Cc1ccc(C(=O)C(C)CN2CCCCC2)cc1` (stereo unspecified) [Tolperisone HCl] showed a relative cell viability of 1.025 ± 0.0064.
For `Nc1ncnc2c1nc(Br)n2[C@@H]1O[C@@H]2COP(=O)(O)O[C@H]2[C@H]1O` [8-Bromo-cAMP], the relative cell viability was 0.902 ± 0.043.
With `CCCCC1C(=O)N(c2ccccc2)N(c2ccccc2)C1=O` [Phenylbutazone] the relative cell viability was 1.09 ± 0.061.
With `CN(C)c1cc(NC(=O)CNC(C)(C)C)c(O)c2c1CC1CC3C(N(C)C)C(=O)C(C(N)=O)=C(O)C3(O)C(=O)C1=C2O` (stereo unspecified) [Tigecycline] the relative cell viability was 0.994 ± 0.068.
In the case of `COc1cc2ncnc(Nc3ccc(F)c(Cl)c3)c2cc1NC(=O)/C=C/CN1CCCCC1`, the relative cell viability is reported as 0.829 ± 0.029.
Work on `CC1=CC(=O)c2ccccc2C1=O` [Menadione] yielded a relative cell viability of 0.671 ± 0.13.
For `CC(=O)/N=c1/sc(S(N)(=O)=O)nn1C` [Methazolamide], the relative cell viability was 1.06 ± 0.042.
`Cc1ccc(C(=O)N(CCCN)[C@@H](c2nc3cc(Cl)ccc3c(=O)n2Cc2ccccc2)C(C)C)cc1` was tested, and the relative cell viability was 0.983 ± 0.024.
For `CCCc1nc2c(C)cc(-c3nc4ccccc4n3C)cc2n1Cc1ccc(-c2ccccc2C(=O)O)cc1` [Telmisartan], the relative cell viability was 1.03 ± 0.15.
`COCCCOc1cc(C[C@@H](C[C@H](N)[C@@H](O)C[C@H](C(=O)NCC(C)(C)C(N)=O)C(C)C)C(C)C)ccc1OC` [Aliskiren Hemifumarate] gave a relative cell viability of 1.21 ± 0.045.
For `CO/N=C(\C(=O)N[C@@H]1C(=O)N2C(C(=O)O)=C(CSC(=O)c3ccco3)CS[C@H]12)c1csc(N)n1` [Ceftiofur HCl], the relative cell viability was 0.995 ± 0.042.
In the case of `CN1[C@@H]2CC[C@H]1C[C@@H](OC(c1ccccc1)c1ccccc1)C2` [Benztropine mesylate], the relative cell viability is reported as 1.0299 ± 0.00025.
With `C[C@@H]1O[C@@H](OC[C@H]2O[C@@H](Oc3c(-c4ccc(O)c(O)c4)oc4cc(O)cc(O)c4c3=O)[C@H](O)[C@@H](O)[C@@H]2O)[C@H](O)[C@H](O)[C@H]1O` [Rutin] the relative cell viability was 1.21 ± 0.018.
Compound `COc1ccnc2[nH]cc(C(=O)C(=O)N3CCN(C(=O)c4ccccc4)C[C@H]3C)c12` has a relative cell viability of 1.18 ± 0.065.
Compound `CCCC(=O)Nc1ccc(OCC(O)CNC(C)C)c(C(C)=O)c1` (stereo unspecified) [Acebutolol HCl] has a relative cell viability of 1.24 ± 0.31.
`CC(C)(C)OC(=O)N[C@H]1CCCCC/C=C\[C@@H]2C[C@@]2(C(=O)NS(=O)(=O)C2CC2)NC(=O)[C@@H]2C[C@@H](OC(=O)N3Cc4cccc(F)c4C3)CN2C1=O` [Danoprevir (ITMN-191)] showed a relative cell viability of 1.19 ± 0.02.
`NC(=O)Nc1sc(-c2ccc(F)cc2)cc1C(N)=O` gave a relative cell viability of 1.2 ± 0.077.
`C[C@H](CCC(=O)O)[C@H]1CC[C@H]2[C@@H]3C[C@H](O)[C@@H]4C[C@H](O)CC[C@]4(C)[C@H]3CC[C@]12C` [Hyodeoxycholic acid (HDCA)] showed a relative cell viability of 1.21 ± 0.052.
Compound `N=C(N)c1ccc(N=NNc2ccc(C(=N)N)cc2)cc1` [Diminazene Aceturate] has a relative cell viability of 1.41 ± 0.38.
`C[C@@H]1O[C@@H](O[C@H]2[C@H](Oc3cc(O)c4c(c3)O[C@H](c3ccc(O)cc3)CC4=O)O[C@H](CO)[C@@H](O)[C@@H]2O)[C@H](O)[C@H](O)[C@H]1O` [Naringin] gave a relative cell viability of 1.063 ± 0.0016.
Compound `Cn1cc(C2=C(c3cn(CCCSC(=N)N)c4ccccc34)C(=O)NC2=O)c2ccccc21` [Ro 31-8220 Mesylate] has a relative cell viability of 0.827 ± 0.022.
Compound `N[C@@H](CC(=O)N1CCn2c(nnc2C(F)(F)F)C1)Cc1cc(F)c(F)cc1F` [Sitagliptin phosphate monohydrate] has a relative cell viability of 1.07 ± 0.012.
With `Cn1cc(/C=C/C(=O)c2cccc(F)c2)cc1/C=C/C(=O)NO` the relative cell viability was 0.872 ± 0.12.
`Cc1nc(N(C)C(=O)Cc2ccc(-c3ccccn3)cc2)sc1S(N)(=O)=O` [Pritelivir (BAY 57-1293)] was tested, and the relative cell viability was 1.26 ± 0.18.
`Nc1nccc2c1ncn2C1C=C(CO)C(O)C1O` (stereo unspecified) [3-Deazaneplanocin A (DZNeP)] was tested, and the relative cell viability was 0.82 ± 0.011.
Compound `COc1nc(C)cnc1NS(=O)(=O)c1cccnc1-c1ccc(-c2nnco2)cc1` [Zibotentan (ZD4054)] has a relative cell viability of 1.28 ± 0.12.
In the case of `C/C(O)=C(\C#N)C(=O)Nc1ccc(C(F)(F)F)cc1` [Teriflunomide], the relative cell viability is reported as 1.03 ± 0.015.
`Nc1ccn([C@@H]2O[C@H](CO)[C@@H](O)[C@H]2O)c(=O)n1` [Cytidine] showed a relative cell viability of 1.16 ± 0.047.
For `CC(C)NCCCn1c(Sc2cc3c(cc2I)OCO3)nc2c(N)ncnc21`, the relative cell viability was 0.745 ± 0.093.
Work on `Cc1cccc(Nc2nc(-c3ccncc3)cs2)c1` yielded a relative cell viability of 1.17 ± 0.17.
In the case of `CN(C)CCC(c1ccccc1)c1ccccn1` (stereo unspecified) [Pheniramine Maleate], the relative cell viability is reported as 1.05 ± 0.15.
Compound `Cc1c(O)cccc1C(=O)N[C@@H](CSc1ccccc1)[C@H](O)CN1C[C@H]2CCCC[C@H]2C[C@H]1C(=O)NC(C)(C)C` [Nelfinavir Mesylate] has a relative cell viability of 0.97 ± 0.16.
`O=c1cc(CN2CCOCC2)occ1OCCCCCSc1ccnc2cc(C(F)(F)F)ccc12` gave a relative cell viability of 1.13 ± 0.024.
`O[C@@H]1CO[C@H]2[C@@H]1OC[C@@H]2O` [Isosorbide] gave a relative cell viability of 1.13 ± 0.051.
`CCOc1ccc(Cc2cc([C@@H]3O[C@H](CO)[C@@H](O)[C@H](O)[C@H]3O)ccc2Cl)cc1` [Dapagliflozin] was tested, and the relative cell viability was 0.908 ± 0.041.
Compound `CN(C)CCN1C(=O)c2cccc3cc(N)cc(c23)C1=O` [Amonafide] has a relative cell viability of 1.042 ± 0.0065.
With `CCCCC(C=O)NC(=O)C(CC(C)C)NC(=O)C(CC(C)C)NC(C)=O` (stereo unspecified) the relative cell viability was 0.305 ± 0.026.
For `C[C@H]1c2cccc(O)c2C(O)=C2C(=O)[C@]3(O)C(O)=C(C(N)=O)C(=O)[C@@H](N(C)C)[C@@H]3[C@@H](O)[C@@H]21` [Doxycycline HCl], the relative cell viability was 1.34 ± 0.14.
In the case of `C[C@H]1c2cccc(O)c2C(O)=C2C(=O)[C@]3(O)C(O)=C(C(N)=O)C(=O)[C@@H](N(C)C)[C@@H]3[C@@H](O)[C@@H]21` [Doxycycline Hyclate], the relative cell viability is reported as 1.31 ± 0.09.
Compound `CCCCCCCCCCCCCCCCO` [1-Hexadecanol] has a relative cell viability of 1.09 ± 0.14.
In the case of `CCCCOc1ccc(CC(=O)NO)cc1` [Bufexamac], the relative cell viability is reported as 1.06 ± 0.1.
`Cc1ccc(O)c([C@H](CCN(C(C)C)C(C)C)c2ccccc2)c1` [Tolterodine tartrate] showed a relative cell viability of 1.13 ± 0.053.
For `Cc1cc(C)cc(NC(=O)Cc2ccc(OC(C)(C)C(=O)O)cc2)c1` [Efaproxiral Sodium], the relative cell viability was 1.12 ± 0.078.
`O=S(=O)(O)CCSSCCS(=O)(=O)O` [Dimesna] showed a relative cell viability of 1.08 ± 0.07.
With `CO[C@H]1C(=O)[C@]2(C)[C@@H](OC)C[C@H]3OC[C@@]3(OC(C)=O)[C@H]2[C@H](OC(=O)c2ccccc2)[C@]2(O)C[C@H](OC(=O)[C@H](O)[C@@H](NC(=O)OC(C)(C)C)c3ccccc3)C(C)=C1C2(C)C` [Cabazitaxel] the relative cell viability was 0.727 ± 0.15.
